Some of the results follow.
Tests used:
Experiment in all cases: glycan array binding signal (z-score within array); higher = stronger binding
Conditions in all cases: glycan notation: IUPAC condensed, linker removed
GalNAc(b1-4)GlcNAc = biological target: GalNAc(b1-4)GlcNAc
In short: (§1)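 Glycan array data were curated from 3228 arrays in the Consortium for Functional Glycomics database and kept only where the protein sequence was available. Glycan names were converted to IUPAC-condensed notation, and columns mapping to the same glycan were averaged. The binding signal is a within-array Z-score, averaged across arrays of the same protein sequence at different concentrations or buffers and across linkers. Negative Z-scores can be read as non-binding.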

[1] = biological target: GalNAc(b1-4)GlcNAc(b1-2)Man
In short: as §1

[2] = biological target: GalNAc(b1-4)GlcNAc(b1-2)Man(a1-3)[GalNAc(b1-4)GlcNAc(b1-2)Man(a1-6)]Man(b1-4)GlcNAc(b1-4)GlcNAc
In short: as §1

[3] = biological target: GalNAc(b1-4)GlcNAc(b1-3)GalNAc(b1-4)GlcNAc
In short: as §1

GalNAc(b1-4)GlcNAc6S = biological target: GalNAc(b1-4)GlcNAc6S
In short: as §1

GalNAc(b1-6)GalNAc = biological target: GalNAc(b1-6)GalNAc
In short: as §1

GalNAc3S(b1-4)GlcNAc = biological target: GalNAc3S(b1-4)GlcNAc
In short: as §1

GalNAc3S(b1-4)GlcNAc3S = biological target: GalNAc3S(b1-4)GlcNAc3S
In short: as §1

[4] = biological target: GalNAc3S(b1-4)[Fuc(a1-3)]GlcNAc
In short: as §1

GalNAc4S6S(b1-4)GlcNAc = biological target: GalNAc4S6S(b1-4)GlcNAc
In short: as §1

GalNAc6S(b1-4)GlcNAc = biological target: GalNAc6S(b1-4)GlcNAc
In short: as §1

Glc(a1-4)Glc = biological target: Glc(a1-4)Glc
In short: as §1

[5] = biological target: Glc(a1-4)Glc(a1-4)Glc(a1-4)Glc
In short: as §1

Glc(a1-6)Glc(a1-6)Glc = biological target: Glc(a1-6)Glc(a1-6)Glc
In short: as §1

[6] = biological target: Glc(a1-6)Glc(a1-6)Glc(a1-6)Glc
In short: as §1

Glc(b1-4)Glc = biological target: Glc(b1-4)Glc
In short: as §1

Glc(b1-6)Glc = biological target: Glc(b1-6)Glc
In short: as §1

GlcA(b1-3)Gal = biological target: GlcA(b1-3)Gal
In short: as §1

GlcA(b1-3)GlcNAc = biological target: GlcA(b1-3)GlcNAc
In short: as §1

GlcA(b1-6)Gal = biological target: GlcA(b1-6)Gal
In short: as §1

[7] = biological target: GlcA3S(b1-3)Gal(b1-4)GlcNAc(b1-2)Man
In short: as §1

[8] = biological target: GlcA3S(b1-3)Gal(b1-4)GlcNAc(b1-3)Gal(b1-4)Glc
In short: as §1

[9] = biological target: GlcNAc(a1-3)Gal(b1-4)GlcNAc
In short: as §1

[10] = biological target: GlcNAc(a1-4)Gal(b1-3)GlcNAc
In short: as §1

[11] = biological target: GlcNAc(a1-4)Gal(b1-4)GalNAc
In short: as §1

[12] = biological target: GlcNAc(a1-4)Gal(b1-4)GlcNAc
In short: as §1

[13] = biological target: GlcNAc(a1-4)Gal(b1-4)GlcNAc(b1-3)Gal(b1-4)Glc
In short: as §1

[14] = biological target: GlcNAc(a1-4)Gal(b1-4)GlcNAc(b1-3)Gal(b1-4)GlcNAc
In short: as §1

[15] = biological target: GlcNAc(a1-4)Gal(b1-4)GlcNAc(b1-3)Gal(b1-4)GlcNAc(b1-3)Gal(b1-4)GlcNAc
In short: as §1

[16] = biological target: GlcNAc(a1-4)Gal(b1-4)GlcNAc(b1-3)Gal(b1-4)[Fuc(a1-3)]GlcNAc(b1-3)Gal(b1-4)[Fuc(a1-3)]GlcNAc
In short: as §1

[17] = biological target: GlcNAc(a1-6)Gal(b1-4)GlcNAc
In short: as §1

[18] = biological target: GlcNAc(b1-2)Gal(b1-3)GalNAc
In short: as §1

[19] = biological target: GlcNAc(b1-2)Man(a1-3)[GlcNAc(b1-2)Man(a1-6)]Man(b1-4)GlcNAc(b1-4)GlcNAc
In short: as §1

[20] = biological target: GlcNAc(b1-2)Man(a1-3)[GlcNAc(b1-2)Man(a1-6)]Man(b1-4)GlcNAc(b1-4)[Fuc(a1-6)]GlcNAc
In short: as §1

[21] = biological target: GlcNAc(b1-2)Man(a1-3)[GlcNAc(b1-4)][GlcNAc(b1-2)Man(a1-6)]Man(b1-4)GlcNAc(b1-4)GlcNAc
In short: as §1

[22] = biological target: GlcNAc(b1-2)Man(a1-3)[GlcNAc(b1-4)][GlcNAc(b1-2)Man(a1-6)]Man(b1-4)GlcNAc(b1-4)[Fuc(a1-6)]GlcNAc
In short: as §1

[23] = biological target: GlcNAc(b1-2)[GlcNAc(b1-4)]Man(a1-3)[GlcNAc(b1-2)Man(a1-6)]Man(b1-4)GlcNAc(b1-4)GlcNAc
In short: as §1

B1: Siglec-E (Mus musculus), Q91Y57 (protein)
chain: MLLLLLLLLLWGIKGVEGQNPQEVFTLNVERKVVVQEGLCVLVPCNFSYLKKRLTDWTDSDPVHGFWYREGTDRRKDSIVATNNPIRKAVKETRNRFFLLGDPWRNDCSLNIREIRKKDAGLYFFRLERGKTKYNYMWDKMTLVVTALTNTPQILLPETLEAGHPSNLTCSVPWDCGWTAPPIFSWTGTSVSFLSTNTTGSSVLTITPQPQDHGTNLTCQVTLPGTNVSTRMTTRLNVSYAPKNLTVTIYQGADSVSTILKNGSSLPISEGQSLRLICSTDSYPPANLSWSWDNLTLCPSKLSKPGLLELFPVHLKHGGVYTCQAQHALGSQHISLSLSPQSSATLSEMMMGTFVGSGVTALLFLSVCILLLAVRSYRRKPARPAVVAPHPDALKVSVSQNPLVESQADDSSEPLPSILEAAPSSTEEEIHYATLSFHEMKPMNLWGQQDTTTEYSEIKFPQRTAWP
GalNAc(b1-4)GlcNAc
  glycan array binding signal (z-score): -0.347
[1]
  glycan array binding signal (z-score): -0.482
[2]
  glycan array binding signal (z-score): -0.083
[3]
  glycan array binding signal (z-score): -0.588
GalNAc(b1-4)GlcNAc6S
  glycan array binding signal (z-score): -0.325
GalNAc(b1-6)GalNAc
  glycan array binding signal (z-score): -0.408
GalNAc3S(b1-4)GlcNAc
  glycan array binding signal (z-score): -0.427
GalNAc3S(b1-4)GlcNAc3S
  glycan array binding signal (z-score): -0.301
[4]
  glycan array binding signal (z-score): 0.019
GalNAc4S6S(b1-4)GlcNAc
  glycan array binding signal (z-score): -0.147
GalNAc6S(b1-4)GlcNAc
  glycan array binding signal (z-score): -0.338
Glc(a1-4)Glc
  glycan array binding signal (z-score): -0.238
[5]
  glycan array binding signal (z-score): 1.05
Glc(a1-6)Glc(a1-6)Glc
  glycan array binding signal (z-score): -0.309
[6]
  glycan array binding signal (z-score): 1.1
Glc(b1-4)Glc
  glycan array binding signal (z-score): -0.196
Glc(b1-6)Glc
  glycan array binding signal (z-score): 1
GlcA(b1-3)Gal
  glycan array binding signal (z-score): -0.395
GlcA(b1-3)GlcNAc
  glycan array binding signal (z-score): -0.232
GlcA(b1-6)Gal
  glycan array binding signal (z-score): 0.097
[7]
  glycan array binding signal (z-score): -0.207
[8]
  glycan array binding signal (z-score): -0.117
[9]
  glycan array binding signal (z-score): -0.313
[10]
  glycan array binding signal (z-score): -0.587
[11]
  glycan array binding signal (z-score): -0.452
[12]
  glycan array binding signal (z-score): -0.41
[13]
  glycan array binding signal (z-score): -0.365
[14]
  glycan array binding signal (z-score): -0.588
[15]
  glycan array binding signal (z-score): -0.453
[16]
  glycan array binding signal (z-score): 0.187
[17]
  glycan array binding signal (z-score): -0.267
[18]
  glycan array binding signal (z-score): -0.364
[19]
  glycan array binding signal (z-score): -0.12
[20]
  glycan array binding signal (z-score): -0.183
[21]
  glycan array binding signal (z-score): -0.191
[22]
  glycan array binding signal (z-score): -0.566
[23]
  glycan array binding signal (z-score): -0.448

Source: the supplement of paper PMC8728848
